Assay results: US20250388684A1 (SICHUAN SWIFTBIO BIOTECHNOLOGY, published 2025)

Key:
human CCR4 = biological target: T1, human CCR4 (human, UniProt P51679 1-360); test: FACS on HEK293T-h.CCR4 cells
T1 construct: whole, on cells; also called h.CCR4; HEK293T-h.CCR4
T1 sequence (looked up): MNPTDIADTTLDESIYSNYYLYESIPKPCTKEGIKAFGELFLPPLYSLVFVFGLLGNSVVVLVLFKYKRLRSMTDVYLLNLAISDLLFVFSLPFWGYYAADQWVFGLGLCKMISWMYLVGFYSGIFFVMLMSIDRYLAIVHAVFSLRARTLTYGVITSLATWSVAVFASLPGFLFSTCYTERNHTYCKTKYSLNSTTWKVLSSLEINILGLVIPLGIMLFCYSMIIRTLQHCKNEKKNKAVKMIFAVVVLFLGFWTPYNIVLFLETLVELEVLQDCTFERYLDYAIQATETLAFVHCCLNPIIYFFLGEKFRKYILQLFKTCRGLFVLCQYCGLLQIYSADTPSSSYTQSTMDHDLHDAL
Description: The specificity of humanized monoclonal antibodies against human CCR4 was assessed using FACS. HEK293T-h.CCR4 cells were collected, washed, and resuspended in 1% BSA (in PBS). Each well of a 96-well V-bottom plate received 3×10\hat{ }5 cells, followed by the addition of the test antibodies at a final concentration of 20 μg/mL and incubation at 4° C. for one hour. After washing, 1 μL of fluorescent secondary antibody (Biolegend, Catalog No.: 410708) was added, and the mixture was incubated. The cells were washed and resuspended for detection using a flow cytometer (Beckman, Model: CytoFLEX).

[1] = biological target: T2, human CCR8 (C-C chemokine receptor type 8) (human, UniProt P51685 1-355); test: FACS on HEK293T-h.CCR8 cells, test 1
T2 construct: whole, on cells; also called h.CCR8; HEK293T-h.CCR8
Description: (§1) The affinity of humanized monoclonal antibodies against human CCR8 was assessed using FACS. The experimental procedure was as follows: HEK293T-h.CCR8 cells were digested and collected by centrifugation, followed by three washes with pre-cooled PBS. The cells were resuspended in 1% BSA (in PBS), with 3×10\hat{ }5 cells added to each well of a 96-well V-bottom plate (50 μL per well). Prepare the antibody dilution series in 1% BSA (in PBS), starting from 40 μg/mL. Perform a 3-fold serial dilution across 10 concentration points. Add 50 μL per well to the cells, so that the final antibody concentration in the wells starts from 20 μg/mL. Mix thoroughly and incubate at 4° C. for 1 hour. The cells were collected by centrifugation, washed three times with pre-cooled PBS, resuspended in 50 μL 1% BSA (in PBS), and 1 μL of fluorescent secondary antibody (Biolegend, Catalog No.: 410708) was added to each well. The mixture was incubated at 4° C. for 30 minutes, followed by three washes with pre-cooled PBS. The cells were then resuspended in 200 μL PBS for detection.

cynomolgus monkey CCR8 = biological target: T3, cynomolgus monkey CCR8 (cynomolgus monkey, UniProt G7NYJ2 1-355); test: FACS on HEK293T-c.CCR8 cells
T3 construct: whole, on cells; also called c.CCR8; HEK293T-c.CCR8

[2] = biological target: T2, human CCR8 (C-C chemokine receptor type …); test: FACS on HEK293T-h.CCR8 cells, test 2 (anti-human Alexa Fluor 647 secondary antibody)
Description: as §1

[3] = biological target: T2, human CCR8 (C-C chemokine receptor type …); test: cell-based or functional assay

T2 sequence (P51685 whole entry): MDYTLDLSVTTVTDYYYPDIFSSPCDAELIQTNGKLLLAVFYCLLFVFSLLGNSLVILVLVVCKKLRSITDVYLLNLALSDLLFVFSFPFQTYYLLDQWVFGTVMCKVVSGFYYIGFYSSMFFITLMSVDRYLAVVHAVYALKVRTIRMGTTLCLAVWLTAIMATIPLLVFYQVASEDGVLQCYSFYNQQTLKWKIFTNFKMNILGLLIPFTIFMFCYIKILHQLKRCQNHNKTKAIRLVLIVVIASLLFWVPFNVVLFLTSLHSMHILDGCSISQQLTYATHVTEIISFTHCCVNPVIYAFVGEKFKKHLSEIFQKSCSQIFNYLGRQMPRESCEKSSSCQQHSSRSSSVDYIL
Chain of cynomolgus monkey CCR8 (G7NYJ2 entry or part of it): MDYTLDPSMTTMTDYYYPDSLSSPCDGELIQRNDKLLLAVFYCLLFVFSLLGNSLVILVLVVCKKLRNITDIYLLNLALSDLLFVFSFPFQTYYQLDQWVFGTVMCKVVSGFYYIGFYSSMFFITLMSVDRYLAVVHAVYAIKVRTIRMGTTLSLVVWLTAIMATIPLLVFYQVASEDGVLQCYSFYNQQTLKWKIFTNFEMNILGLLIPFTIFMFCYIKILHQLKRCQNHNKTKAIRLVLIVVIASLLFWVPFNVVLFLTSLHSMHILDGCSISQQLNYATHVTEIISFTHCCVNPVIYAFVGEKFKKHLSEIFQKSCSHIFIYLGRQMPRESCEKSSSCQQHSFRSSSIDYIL

- binding result (human CCR4): no binding (tested: 20 µg/mL)
- EC50 [1]: 0.104 µg/mL
- EC50 (cynomolgus monkey CCR8): 0.221 µg/mL
- EC50 [2]: 0.0203 µg/mL
- ADCC activity EC50 [3]: 0.00977 µg/mL
- ADCP activity EC50 [3]: 0.112 µg/mL
- Inhibition rate of CCL1-mediated cell migration (%) at 50 µg/mL, BaF3-h.CCR8 cells, Transwell [3]: 68%
B1: 13F3H6-hz (humanized anti-human CCR8 monoclonal antibody, human IgG1) (antibody)
heavy: EVQLVESGGGLVQPGESLRLSCAASGFTFNAYAMNWVRQAPGQGLEWVARIRTKSNNYATYYADSVKGRFTISRDDSKNTLYLEMNSLRAEDTAVYYCVRHKKVREGYAMDYWGQGTLVTVSS[left out - human IgG1 constant region]
light: DIVLTQSPASLVLSLGQRATISCRASKSVSTSGYTYMHWYQQKPGQPPKLLIYLASNLESGVPARFSGSGSGTDFTLNIHPVEEEDAATYYCQHSRELPFTFGSGTKLEIKRTVAAPSVFIFPPSDEQLKSGTASVVCLLNNFYPREAKVQWKVDNALQSGNSQESVTEQDSKDSTYSLSSTLTLSKADYEKHKVYACEVTHQGLSSPVTKSFNRGEC
notes: Copies of 2 follow from the IgG1 format
